Measurements: PubChem BioAssay AID720542 (National Center for Advancing Translational Sciences (NCATS), 2013)
Screen size: about 360,000 compounds; about 740 (0.21%) were called active. This list was built around the results that the source calls inconclusive (neither active nor inactive); the mix of calls is not that of the screen. The call rests on the fitted dose curve; in most records, active means well fitted inhibition curve with a large enough effect; inconclusive means small, poorly fitted or top-dose-only effect; inactive means no such curve, though single readings can be large or run the other way. No potency is given beside an inconclusive call; the fits are too rough.

Test system: Plasmodium falciparum AMA1 (3D7) - RON2 peptide interaction
Experiment: qHTS for Inhibitors of AMA1-RON; Towards Development of Antimalarial Drug Lead: Primary Screen; further: nearly all actives have a fitted effect of over 45% in size;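 on activity change, negative = inhibition: 0% = vehicle wells and -100% = peptide control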
Settings: AlphaScreen AMA1-biotinylated RON2 peptide binding; activity change, negative = inhibition: at 58.2 µM (top of the series) unless noted
Outline: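 AMA1 (3D7) with his tag at 25 nM final met compounds first, then biotinylated RON2 peptide at 25 nM; detection used donor plus acceptor beads, 10 µg/mL apiece, read by AlphaScreen after 30 min at room temperature.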
Potency means the concentration at half of the fitted maximal effect; tags describe the fitted curve by direction and shape.

Q: How did the Potency turn out when Cc1ccc(OCC(=O)c2cc(C)n(Cc3ccco3)c2C)c([N+](=O)[O-])n1 was run?
A: inconclusive [inhibitor, partial curve]

Q: Which Potency does the source give for Cc1cn([C@H]2C[C@H](O)[C@@H](/C=C/C(=O)NCCc3ccc4c(c3)OCO4)O2)c(=O)[nH]c1=O here?
A: inconclusive [inhibitor, partial curve, poor fit]

Q: With N#Cc1cc[n+](CC(=O)c2ccc(NC(=O)c3ccccc3)cc2)cc1 as the molecule, how does the Potency read?
A: inconclusive [inhibitor, full curve, poor fit]

Q: How did the Potency turn out when Cc1cccc(Nc2c([N+](=O)[O-])cc(C(=O)N3CC(=O)Nc4ccccc43)cc2[N+](=O)[O-])c1 was run?
A: inconclusive [inhibitor, single point]

Q: For CCOc1ccccc1N1CCN(Cc2ccc(OC)c(OC)c2OC)CC1, which Potency is on record?
A: inconclusive [inhibitor, partial curve]

Q: How did the “activity change, negative = inhibition” value turn out when C=CCn1c(=O)c2ccccc2n2c(SCc3nc(N)nc(Nc4ccccc4C)n3)nnc12 was run?
A: inactive: -1.68%

Q: CC(C)c1ccc(CNc2ccc(N3CCOCC3)cc2)cc1 was tested. Which Potency did it give?
A: inconclusive [inhibitor, single point]

Q: S=C(c1ccc(-c2ccc(Cl)cc2)o1)N1CCCCC1 was tested. Which Potency did it give?
A: inconclusive [inhibitor, partial curve]

Q: With O=C(NC(C(=O)N/N=C/c1cc([N+](=O)[O-])ccc1O)c1n[nH]c(=O)c2ccccc12)c1ccccc1 (stereo unspecified) as the molecule, how does the Potency read?
A: inconclusive [inhibitor, single point]

Q: COc1ccc(-c2oc(NC(C)=O)c(C#N)c2-c2ccc(OC)cc2)cc1 was tested. Which Potency did it give?
A: inconclusive [inhibitor, partial curve, poor fit]

Q: With O=C1c2ccccc2C(=O)N1CCc1c(-c2ccccc2)[nH]c2ccccc12 as the molecule, how does the Potency read?
A: inconclusive [inhibitor, single point]

Q: How did the “activity change, negative = inhibition” value turn out when Cn1cccc1CC(=O)N/N=C/c1ccco1 was run?
A: inactive: 0.984%

Q: With C[C@@]12C(=O)N(Cc3ccco3)CC(=O)N1[C@H]1c3ccccc3OC[C@@H]1[C@@H]2c1ccccc1 as the molecule, how does the Potency read?
A: inconclusive [inhibitor, single point]

Q: For COc1cccc(N2CCN(C(=O)c3ccc(CS(=O)c4ccc(C)cc4)o3)CC2)c1 (stereo unspecified), which Potency is on record?
A: inconclusive [inhibitor, single point]

Q: For Cn1c(-c2ccc(F)cc2)cnc1NCc1cc2c(cc1[N+](=O)[O-])OCO2, which Potency is on record?
A: inconclusive [inhibitor, partial curve]

Q: For CN(C)c1ccc(NC(=O)CSc2n[nH]c(-c3ccncc3)n2)cc1, which “activity change, negative = inhibition” value is on record?
A: inactive: 1.5%

Q: How did the Potency turn out when CN(C)c1ccc(-c2nc3ccccn3c2/N=C/c2ccc(Br)cc2)cc1 was run?
A: inconclusive [inhibitor, partial curve]

Q: Which Potency does the source give for CCOc1c2ccc(C(=O)NCC34CC5CC(CC(C5)C3)C4)cc2nn1CC here?
A: inconclusive [inhibitor, partial curve]

Q: With CCN(CC)C(=O)C1CCN(Cc2ccc(OCc3ccccc3)c(OC)c2)CC1 as the molecule, how does the Potency read?
A: inconclusive [inhibitor, partial curve]

Q: For Clc1ccc2nc(CSc3nncn3-c3ccccc3)cn2c1, which “activity change, negative = inhibition” value is on record?
A: inactive: 20.3%

Q: COc1cc(C(=O)NNC(=O)c2ccco2)cc(OC)c1OC was tested. Which Potency did it give?
A: inconclusive [inhibitor, full curve, poor fit]

Q: How did the Potency turn out when O=C1/C(=C/C=C/c2ccco2)SC(=S)N1c1ccc(O)cc1 was run?
A: inconclusive [inhibitor, partial curve]

Q: How did the Potency turn out when Cc1cccc(OCCn2cccc2/C=C2/C(=O)NC(=O)N(Cc3ccco3)C2=O)c1 was run?
A: inconclusive [inhibitor, single point]

Q: With COC(=O)C1=C(C)N(c2cccc(C)c2)C(=O)/C1=C\c1cccs1 as the molecule, how does the Potency read?
A: inconclusive [inhibitor, partial curve]

Q: O=[N+]([O-])c1cc(S(=O)(=O)N2CCCC2)ccc1NCCc1ccccc1 was tested. Which “activity change, negative = inhibition” value did it give?
A: inactive: 12.9%

Q: For O=C(CSc1nccn1-c1ccc(F)cc1)Nc1ccc2c(c1)OCO2, which Potency is on record?
A: inconclusive [inhibitor, partial curve]

Q: O=c1c2ccccc2nc(SCCN2CCOCC2)n1CCc1ccccc1 was tested. Which Potency did it give?
A: inconclusive [inhibitor, single point]

Q: Which “activity change, negative = inhibition” value does the source give for CCc1cc2c(SCC(=O)c3ccc(C)cc3)ncnc2s1 here?
A: inactive: 4.47%

Q: COC(CNC(=O)CCc1c(C)nc2c(c(C)nn2-c2ccc(C)cc2)c1C)OC was tested. Which “activity change, negative = inhibition” value did it give?
A: inactive: -8.35%

Q: How did the “activity change, negative = inhibition” value turn out when CC(=O)N(CN1C(=O)c2ccccc2C1=O)c1ccc2c(c1)oc1ccccc12 was run?
A: inactive: 0.253%

Q: With O=C1c2cc(CO)cc(O)c2C(=O)c2c(O[C@@H]3OC(CO)[C@@H](O)[C@@H](O)[C@@H]3O)cccc21 (stereo partly specified) as the molecule, how does the “activity change, negative = inhibition” value read?
A: inactive: -10.1%

Q: For Cc1[nH]c2c(Cl)cccc2c1CCNC(=O)C1CCCCC1C(=O)OCC(F)(F)F (stereo unspecified), which Potency is on record?
A: inconclusive [inhibitor, single point]

Q: With Cc1nc(C)c(-c2csc(Nc3ncccc3C)n2)s1 as the molecule, how does the “activity change, negative = inhibition” value read?
A: inactive: 4.85%

Q: For Cc1ccsc1C(=O)C1CCCN(Cc2cccn2-c2ccc(Cl)cn2)C1 (stereo unspecified), which “activity change, negative = inhibition” value is on record?
A: inactive: -1.54%

Q: Which Potency does the source give for CC(NS(=O)(=O)c1ccc(Cl)cc1)C(=O)OCC(=O)Nc1ccc(N(C)C)cc1 (stereo unspecified) here?
A: inconclusive [inhibitor, partial curve]

Q: For COc1cccc(C(=O)Nc2ccc(N3CCCC3)cc2)c1, which Potency is on record?
A: inconclusive [inhibitor, single point]

Q: Which Potency does the source give for COc1cc(OC)c(OC)cc1/C=C1\CCC/C(=C\c2cc(OC)c(OC)cc2OC)C1=O here?
A: inconclusive [inhibitor, partial curve]

Q: COc1ccc(C(=O)/C=C/c2ccc(OC3CSC3)cc2)cc1OC was tested. Which Potency did it give?
A: inconclusive [inhibitor, full curve, poor fit]

Q: Which Potency does the source give for O=C(O)CCCC[C@@H]1SC[C@@H]2NC(=O)N[C@@H]21 here?
A: inconclusive [inhibitor, full curve]

Q: For COc1cc(C2Oc3ccccc3C=C2[N+](=O)[O-])cc(OC)c1OC (stereo unspecified), which Potency is on record?
A: inconclusive [inhibitor, single point]

Q: c1cc(CN2CCN(C3CCCCCC3)CC2)ccn1 was tested. Which Potency did it give?
A: inconclusive [inhibitor, partial curve]
